Results published in PubChem BioAssay (NCI).
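A five-concentration, 48-hour dose response in 96-well plates underlies each endpoint, interpolated linearly between surrounding concentrations. Definition used: TGI = concentration required for complete inhibition of growth.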

Columns and labels:
Experiment in all cases: NCI-60 cell line screen, 48 h
786-0 renal = system: 786-0 renal
A498 renal = system: A498 renal
A549 NSCLC = system: A549 NSCLC
ACHN renal = system: ACHN renal
BT-549 breast = system: BT-549 breast
CAKI-1 renal = system: CAKI-1 renal
CCRF-CEM leukemia = system: CCRF-CEM leukemia
COLO 205 colon = system: COLO 205 colon
DU-145 prostate = system: DU-145 prostate
EKVX NSCLC = system: EKVX NSCLC
HCC-2998 colon = system: HCC-2998 colon
HCT-116 colon = system: HCT-116 colon
HCT-15 colon = system: HCT-15 colon
HL-60(TB) leukemia = system: HL-60(TB) leukemia
HOP-62 NSCLC = system: HOP-62 NSCLC
HOP-92 NSCLC = system: HOP-92 NSCLC
HS 578T breast = system: HS 578T breast
HT29 colon = system: HT29 colon
IGROV1 ovarian = system: IGROV1 ovarian
K-562 leukemia = system: K-562 leukemia
KM12 colon = system: KM12 colon
LOX IMVI melanoma = system: LOX IMVI melanoma
MALME-3M melanoma = system: MALME-3M melanoma
MCF7 breast = system: MCF7 breast
MDA-MB-231 breast = system: MDA-MB-231 breast
MDA-MB-435 = system: MDA-MB-435
MDA-N = system: MDA-N
MOLT-4 leukemia = system: MOLT-4 leukemia
NCI-H226 lung = system: NCI-H226 lung
NCI-H23 lung = system: NCI-H23 lung
NCI-H460 lung = system: NCI-H460 lung
NCI-H522 lung = system: NCI-H522 lung
NCI/ADR-RES ovarian = system: NCI/ADR-RES ovarian
OVCAR-3 ovarian = system: OVCAR-3 ovarian
OVCAR-5 ovarian = system: OVCAR-5 ovarian
OVCAR-8 ovarian = system: OVCAR-8 ovarian
PC-3 prostate = system: PC-3 prostate
RPMI-8226 leukemia = system: RPMI-8226 leukemia
RXF 393 renal = system: RXF 393 renal
SF-268 CNS = system: SF-268 CNS
SF-295 CNS = system: SF-295 CNS
SF-539 CNS = system: SF-539 CNS
SK-MEL-28 melanoma = system: SK-MEL-28 melanoma
SK-MEL-5 melanoma = system: SK-MEL-5 melanoma
SN12C renal = system: SN12C renal
SNB-19 CNS = system: SNB-19 CNS
SNB-75 CNS = system: SNB-75 CNS
SR leukemia = system: SR leukemia
SW-620 colon = system: SW-620 colon
TK-10 renal = system: TK-10 renal
U251 CNS = system: U251 CNS
UACC-257 melanoma = system: UACC-257 melanoma

Q: With `O=C1Cc2c([nH]c3ccc(F)cc23)-c2ccccc2N1` as the compound, how does the TGI (786-0 renal) read?
A: > 100 µM

Q: What about the TGI (A498 renal) of the same compound?
A: 87.9 µM

Q: What about the TGI (A549 NSCLC) of the same compound?
A: 37.5 µM

Q: What about the TGI (ACHN renal) of the same compound?
A: > 100 µM

Q: And the TGI (BT-549 breast)?
A: > 100 µM

Q: What about the TGI (CAKI-1 renal) of the same compound?
A: > 100 µM

Q: And the TGI (CCRF-CEM leukemia)?
A: 68.7 µM

Q: What about the TGI (COLO 205 colon) of the same compound?
A: > 100 µM

Q: And the TGI (DU-145 prostate)?
A: > 100 µM

Q: What about the TGI (EKVX NSCLC) of the same compound?
A: > 100 µM

Q: What about the TGI (HCC-2998 colon) of the same compound?
A: 63.1 µM

Q: And the TGI (HCT-116 colon)?
A: > 100 µM

Q: And the TGI (HCT-15 colon)?
A: 73.2 µM

Q: What about the TGI (HL-60(TB) leukemia) of the same compound?
A: 45.5 µM

Q: What about the TGI (HOP-62 NSCLC) of the same compound?
A: 92.5 µM

Q: What about the TGI (HOP-92 NSCLC) of the same compound?
A: 77.5 µM

Q: And the TGI (HS 578T breast)?
A: 68.6 µM

Q: And the TGI (HT29 colon)?
A: 85.1 µM

Q: What about the TGI (IGROV1 ovarian) of the same compound?
A: > 100 µM

Q: What about the TGI (K-562 leukemia) of the same compound?
A: > 100 µM

Q: And the TGI (KM12 colon)?
A: > 100 µM

Q: And the TGI (LOX IMVI melanoma)?
A: > 100 µM

Q: And the TGI (MALME-3M melanoma)?
A: > 100 µM

Q: And the TGI (MCF7 breast)?
A: 82.4 µM

Q: What about the TGI (MDA-MB-231 breast) of the same compound?
A: > 100 µM

Q: What about the TGI (MDA-MB-435) of the same compound?
A: > 100 µM

Q: And the TGI (MDA-N)?
A: > 100 µM

Q: And the TGI (MOLT-4 leukemia)?
A: 49.9 µM

Q: What about the TGI (NCI-H226 lung) of the same compound?
A: > 100 µM

Q: What about the TGI (NCI-H23 lung) of the same compound?
A: > 100 µM

Q: What about the TGI (NCI-H460 lung) of the same compound?
A: > 100 µM

Q: What about the TGI (NCI-H522 lung) of the same compound?
A: 51.2 µM

Q: And the TGI (NCI/ADR-RES ovarian)?
A: > 100 µM

Q: What about the TGI (OVCAR-3 ovarian) of the same compound?
A: > 100 µM

Q: And the TGI (OVCAR-5 ovarian)?
A: 88.1 µM

Q: And the TGI (OVCAR-8 ovarian)?
A: > 100 µM

Q: What about the TGI (PC-3 prostate) of the same compound?
A: 96.5 µM

Q: What about the TGI (RPMI-8226 leukemia) of the same compound?
A: 41.6 µM

Q: And the TGI (RXF 393 renal)?
A: 11 µM

Q: And the TGI (SF-268 CNS)?
A: > 100 µM

Q: What about the TGI (SF-295 CNS) of the same compound?
A: > 100 µM

Q: What about the TGI (SF-539 CNS) of the same compound?
A: 75.4 µM

Q: And the TGI (SK-MEL-28 melanoma)?
A: > 100 µM

Q: And the TGI (SK-MEL-5 melanoma)?
A: 30.4 µM

Q: And the TGI (SN12C renal)?
A: 97.9 µM

Q: And the TGI (SNB-19 CNS)?
A: > 100 µM

Q: And the TGI (SNB-75 CNS)?
A: > 100 µM

Q: What about the TGI (SR leukemia) of the same compound?
A: 42.5 µM

Q: And the TGI (SW-620 colon)?
A: > 100 µM

Q: What about the TGI (TK-10 renal) of the same compound?
A: > 100 µM

Q: What about the TGI (U251 CNS) of the same compound?
A: 81.8 µM

Q: And the TGI (UACC-257 melanoma)?
A: > 100 µM
